“And” between values parts separate entries of the source, which are not always exact repeats. Equal values may be shown once. Inconclusive results, whose numbers are uncertain, are shown with a selection of clear calls. For some of these results: Potencies beside an inconclusive call are fits to weak or partial responses and may not hold up. The source made the active and inactive calls. Unless noted, the call rests on the fitted dose curve; in most records, active means well fitted curve in the direction sought with a large enough effect in the repeat runs; inconclusive means weak or mixed curves; inactive means no such curve, though single readings can be large; an effect the other way counts as inactive or inconclusive.
Key:
[1] = qHTS assay to identify small molecule antagonists of the androgen receptor (AR) signaling pathway using the MDA cell line in the presence of 0.5 nM R1881 - cell viability counter screen (AID 1259242); further: nearly all actives have a fitted effect of over 45% in size; further: potency means the concentration at half of the fitted maximal effect
Procedure, shortened: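 Live-cell protease activity was measured by CellTiter-Fluor fluorescence after 30 min. Before that, MDA-kb2 MMTV-luciferase cells had 16 hr at 37C without CO2, exposed to test compounds and 0.5 nM R1881 final.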

[2] = target: Androgen receptor (Homo sapiens) (UniProt P10275); experiment: qHTS assay to identify small molecule antagonists of the androgen receptor (AR) signaling pathway using the MDA cell line in the presence of 0.5 nM R1881 (AID 1259243); further: potency means the concentration at half of the fitted maximal effect; nearly all actives have a fitted effect of over 50% in size
Sequence of UniProt P10275 (P10275 whole entry, looked up): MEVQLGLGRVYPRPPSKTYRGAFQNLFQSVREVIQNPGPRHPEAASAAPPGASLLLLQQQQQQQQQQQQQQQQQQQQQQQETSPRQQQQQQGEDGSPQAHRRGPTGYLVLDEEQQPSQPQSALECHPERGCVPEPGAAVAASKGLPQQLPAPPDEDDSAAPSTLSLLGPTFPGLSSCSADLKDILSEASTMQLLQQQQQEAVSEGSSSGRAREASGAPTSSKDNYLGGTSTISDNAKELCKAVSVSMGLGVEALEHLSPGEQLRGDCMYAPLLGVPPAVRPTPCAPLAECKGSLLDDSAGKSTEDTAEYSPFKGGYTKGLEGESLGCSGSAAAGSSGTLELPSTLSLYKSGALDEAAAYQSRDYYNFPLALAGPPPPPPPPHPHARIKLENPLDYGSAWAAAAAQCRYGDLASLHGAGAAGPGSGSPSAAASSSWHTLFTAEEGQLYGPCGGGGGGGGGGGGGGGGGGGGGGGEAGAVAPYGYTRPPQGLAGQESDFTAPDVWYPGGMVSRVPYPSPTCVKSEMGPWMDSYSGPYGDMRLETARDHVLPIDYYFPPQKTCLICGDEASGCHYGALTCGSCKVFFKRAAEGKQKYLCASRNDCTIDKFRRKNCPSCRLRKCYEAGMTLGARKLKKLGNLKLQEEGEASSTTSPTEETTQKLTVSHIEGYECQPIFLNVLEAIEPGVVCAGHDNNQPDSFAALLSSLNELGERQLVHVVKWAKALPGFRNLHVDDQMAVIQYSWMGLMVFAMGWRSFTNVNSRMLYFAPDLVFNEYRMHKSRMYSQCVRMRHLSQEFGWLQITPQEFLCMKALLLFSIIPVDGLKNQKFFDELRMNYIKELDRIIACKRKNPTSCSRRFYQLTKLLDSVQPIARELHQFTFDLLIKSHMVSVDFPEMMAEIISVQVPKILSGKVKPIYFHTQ
Procedure, shortened: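 Luminescent reporter readout (ONE-Glo, 30 min, room temperature) after 16 hr co-treatment of MDA-kb2 cells with test compounds and 0.5 nM R1881 final, at 37C without CO2. The MMTV-driven luciferase responds to both AR and GR.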

[3] = qHTS assay to identify small molecule HDAC inhibitors - cell viability counter screen (AID 1259365); further: potency means the concentration at half of the fitted maximal effect; nearly all actives have a fitted effect of over 50% in size
Procedure, shortened: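 HCT-116 (wild type), 1,500 cells/well, overnight 37C/5% CO2; compound in DMSO 2hr; CellTiter-Glo 30min RT; luminescence read.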

[4] = qHTS assay to identify small molecule agonists of the sonic hedgehog signaling (Shh) pathway (AID 1259368; calls by dose curve;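 further: NIH/3T3-derived 3T3Gli1-Luc cells carrying a stable Gli1-driven firefly luciferase reporter; on the % scale 0 is the no-effect control and ±100 the full control effect; nearly all actives have a fitted effect of over 15% in size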)
Procedure, shortened: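 Luminescence was read after 30 min at room temperature with luciferase reagent. Before that, 3T3Gli1-Luc cells (NIH/3T3 clone, stable Gli1-Luc reporter; 2,000/well) were exposed to compounds for 24 hr at 37C, 5% CO2, compounds being added 4 hr post-plating.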

[5] = qHTS assay to identify small molecule antagonists of the estrogen receptor alpha (ER-alpha) signaling pathway using the BG1 cell line in the presence of 0.1 nM 17-beta-estradiol - cell viability counter screen (AID 1259241); further: nearly all actives have a fitted effect of over 40% in size; further: potency means the concentration at half of the fitted maximal effect
Procedure, shortened: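 Live-cell protease activity (CellTiter-Fluor fluorescence, 30 min) was read in the same wells after VM7Luc4E2 cells had been exposed to compounds with 0.1 nM 17beta-estradiol for 22 hr at 37C.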

[6] = qHTS assay to identify small molecule phospholipidosis (PLD) inducers (AID 1259344; active means well fitted curve in the direction sought with a large enough effect; inconclusive means small, poorly fitted or top-dose-only effect, or another doubt; inactive means no such curve, though single readings can be large; an effect the other way counts as inactive or inconclusive; further: potency means the concentration at half of the fitted maximal effect)
Procedure, shortened: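 Read-out is LipidTOX Red fluorescence (ex 595/em 615) imaged in HepG2 cells after 24 h compound exposure at 37 C, with Hoechst nuclear counterstain (ex 352/em 461) allowing per-cell normalisation.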

[7] = qHTS assay to identify small molecule antagonists of the sonic hedgehog signaling (Shh) pathway - cell viability counter screen (AID 1259367); further: potency means the concentration at half of the fitted maximal effect; nearly all actives have a fitted effect of over 55% in size
Procedure, shortened: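 Fluorescence read-out (CellTiter-Fluor, 1 hr at 37C) taken after 23 hr compound treatment of 3T3 Gli1-Luc cells stimulated with conditioned medium. Cells were seeded at 2,000 per well and pre-incubated 4 hr.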

[8] = qHTS assay to identify small molecule agonists of the sonic hedgehog signaling (Shh) pathway - cell viability counter screen (AID 1259366); further: potency means the concentration at half of the fitted maximal effect; nearly all actives have a fitted effect of over 50% in size
Procedure, shortened: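 CellTiter-Fluor fluorescence read-out, 1 hr at 37C, added after 23hr compound exposure. Cells: 3T3 Gli1-Luc, an NIH/3T3 clone with stably integrated Gli1-Luc reporter, plated 4hr before compound.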

[9] = qHTS assay to identify small molecule antagonists of the sonic hedgehog signaling (Shh) pathway (AID 1259369; calls by dose curve; further: potency means the concentration at half of the fitted maximal effect; nearly all actives have a fitted effect of over 45% in size)
Procedure, shortened: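 Antagonist mode: compound added to 3T3 Gli1-Luc cells followed by conditioned-medium stimulation, 24 h at 37 C, 5% CO2. Inhibition taken as loss of Gli1-driven luciferase luminescence.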

[10] = target: Estrogen receptor beta (Homo sapiens) (UniProt Q92731); experiment: qHTS assay to identify small molecule agonists of the estrogen receptor beta (ER-beta) signaling pathway (AID 1259377; active means well fitted activation curve with a large enough effect in the signal ratio in the repeat runs, not every such curve was filed as active; inconclusive means weak or mixed curves, or effect the other way; the % refers to the signal ratio; further: potency means the concentration at half of the fitted maximal effect; on activation: on the % scale 0 is the no-effect control and ±100 the full control effect); details: ER-beta-UAS-bla HEK293T, beta-lactamase FRET ratio, 16 h; activation: at 92.4 µM (top of the series) unless noted
Sequence of UniProt Q92731 (Q92731 whole entry, looked up): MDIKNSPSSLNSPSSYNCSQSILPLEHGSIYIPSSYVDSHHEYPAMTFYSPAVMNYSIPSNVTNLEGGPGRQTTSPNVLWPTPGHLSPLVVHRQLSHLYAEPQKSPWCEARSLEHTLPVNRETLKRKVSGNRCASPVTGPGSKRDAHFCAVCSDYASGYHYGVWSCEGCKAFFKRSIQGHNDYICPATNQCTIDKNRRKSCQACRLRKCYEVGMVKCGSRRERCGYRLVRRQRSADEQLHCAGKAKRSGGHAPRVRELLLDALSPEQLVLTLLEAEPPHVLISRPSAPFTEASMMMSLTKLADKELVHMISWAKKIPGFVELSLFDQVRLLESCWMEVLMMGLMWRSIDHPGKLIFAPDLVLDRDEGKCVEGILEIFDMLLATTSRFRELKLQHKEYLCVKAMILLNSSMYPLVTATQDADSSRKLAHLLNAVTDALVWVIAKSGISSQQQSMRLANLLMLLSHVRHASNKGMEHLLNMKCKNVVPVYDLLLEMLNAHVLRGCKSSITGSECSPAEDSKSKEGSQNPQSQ
Procedure, shortened: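 Beta-lactamase reporter readout: fluorescence of LiveBLAzer B/G FRET substrate after 2 h at room temperature, following 16 h compound treatment of ER-beta-UAS-bla HEK293T cells at 37C in 2% charcoal-stripped FBS medium.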

[11] = target: Estrogen receptor (Homo sapiens) (UniProt P03372); experiment: qHTS assay to identify small molecule antagonists of the estrogen receptor alpha (ER-alpha) signaling pathway using the BG1 cell line in the presence of 0.1 nM 17-beta-estradiol (AID 1259244); further: potency means the concentration at half of the fitted maximal effect; nearly all actives have a fitted effect of over 50% in size
Sequence of UniProt P03372 (P03372 whole entry, looked up): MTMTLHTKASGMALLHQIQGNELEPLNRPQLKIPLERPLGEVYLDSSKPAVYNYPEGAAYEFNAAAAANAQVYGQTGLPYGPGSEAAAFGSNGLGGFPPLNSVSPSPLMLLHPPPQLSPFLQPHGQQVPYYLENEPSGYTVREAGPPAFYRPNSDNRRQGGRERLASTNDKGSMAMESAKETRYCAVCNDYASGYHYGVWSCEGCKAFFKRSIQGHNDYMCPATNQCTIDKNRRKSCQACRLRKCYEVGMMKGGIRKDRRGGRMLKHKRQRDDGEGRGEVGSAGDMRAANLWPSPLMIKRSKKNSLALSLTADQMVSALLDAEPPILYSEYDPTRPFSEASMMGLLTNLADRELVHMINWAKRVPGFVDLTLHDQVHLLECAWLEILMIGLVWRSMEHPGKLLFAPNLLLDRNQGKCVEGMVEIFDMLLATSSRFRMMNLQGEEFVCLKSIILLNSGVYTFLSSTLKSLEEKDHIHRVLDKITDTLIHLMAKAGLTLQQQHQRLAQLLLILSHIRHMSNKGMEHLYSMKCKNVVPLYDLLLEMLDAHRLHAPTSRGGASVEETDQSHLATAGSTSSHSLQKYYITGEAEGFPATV
Procedure, shortened: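 Luciferase luminescence (ONE-Glo, 30 min at room temperature) was read after 22 hr at 37C exposure to compounds plus 17beta-estradiol at 0.1 nM final. Cells were VM7Luc4E2 with endogenous ER-alpha and an ERE-driven luciferase, pre-cultured 5 days in hormone-depleted medium.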

[12] = target: Estrogen receptor beta (Homo sapiens) (UniProt Q92731); experiment: qHTS assay to identify small molecule antagonists of the estrogen receptor beta (ER-beta) signaling pathway (AID 1259378; active means well fitted inhibition curve with a large enough effect in the signal ratio in the repeat runs, not every such curve was filed as active; inconclusive means weak or mixed curves, or effect the other way; inactive means no such curve, though single readings can be large or run the other way; the % refers to the signal ratio; further: potency means the concentration at half of the fitted maximal effect; on activity, negative = inhibition: on the % scale 0 is the no-effect control and ±100 the full control effect); details: ER-beta-UAS-bla HEK293T, beta-lactamase FRET ratio, 16 h; activity, negative = inhibition: at 92.4 µM (top of the series) unless noted
Procedure, shortened: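 ER-beta-UAS-bla HEK293T cells in 2% charcoal-stripped FBS medium treated with compound plus 1nM final 17-beta-estradiol for 16 hr at 37C. Beta-lactamase reporter read by FRET substrate fluorescence after 2 hours at room temperature.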

[13] = qHTS assay to identify small molecule agonists of the estrogen receptor beta (ER-beta) signaling pathway - cell viability counter screen (AID 1259380); further: potency means the concentration at half of the fitted maximal effect; nearly all actives have a fitted effect of over 30% in size
Procedure, shortened: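 Cell viability counter screen: CellTiter-Glo luminescence (30 min, room temperature) measured in the same wells as the beta-lactamase readout, after 16 hr compound exposure at 37C of ER-beta-bla HEK293T cells in 2% charcoal-stripped FBS medium.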

[14] = qHTS assay to identify small molecule HDAC inhibitors (AID 1259364); further: potency means the concentration at half of the fitted maximal effect; nearly all actives have a fitted effect of over 45% in size
Procedure, shortened: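 Luminescence read after 30 min room-temperature HDAC-Glo incubation measures cellular class I/II HDAC activity. Compounds were applied for 2 hr at 37 C to HCT-116 wild-type cells seeded the day before.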

[15] = qHTS assay to identify small molecule agonists or antagonists of the thyroid stimulating hormone receptor (TSHR) signaling pathway - wild type cell line counter screen (AID 1259384; calls by dose curve; further: potency means the concentration at half of the fitted maximal effect); details: HEK293 wild type, cAMP HTRF counter-screen; cAMP activity change: at 92.4 µM (top of the series), stronger effect = higher value unless noted
Procedure, shortened: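 Wild-type Hek293 cells, 800/well, 18 h at 37C, then compound with Ro20-1724 for 30 min RT. cAMP by HTRF (cAMP-d2/anti-cAMP cryptate), 1 h RT, fluorescence read. 15 concentrations, triplicates.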

[16] = qHTS assay to identify small molecule agonists of the androgen receptor (AR) signaling pathway in the presence of an antagonist - cell viability counter screen (AID 1259379); further: potency means the concentration at half of the fitted maximal effect; nearly all actives have a fitted effect of over 25% in size
Procedure, shortened: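 Cytotoxicity counter-screen run in the same wells as the nilutamide-challenged (3.0 µM final) AR agonist assay in MDA-kb2 cells. Compounds tested at 15 concentrations for 16 h, 37 °C without CO2; CellTiter-Fluor fluorescence read.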

[17] = qHTS assay to identify small molecule antagonists of the estrogen receptor beta (ER-beta) signaling pathway - cell viability counter screen (AID 1259382); further: potency means the concentration at half of the fitted maximal effect; nearly all actives have a fitted effect of over 55% in size
Procedure, shortened: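 Cytotoxicity was measured in the same wells by CellTiter-Glo luminescence after 30 min at room temperature. Cells were ER-beta-bla HEK293T in charcoal-stripped serum, given compound together with 1 nM E2 and incubated 16 h at 37C.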
Tags describe the fitted curve by direction and shape or compound fluorescence and quenching.

With OCCN(CCO)c1nc(N2CCCCC2)c2nc(N(CCO)CCO)nc(N3CCCCC3)c2n1 the Potency [1] was inconclusive: 23.7 µM [rising, partial curve] and the Potency [2] was inconclusive: 23.7 µM [inhibitor, partial curve, poor fit].

With CC(O)C#CC(C)O (stereo not drawn) the Potency [3] was inconclusive: 48.1 µM [rising, partial curve, poor fit].

For NS(=O)(=O)O, the Potency [4] was “inactive”.

For O=C1NCCN1CCN1CCC(c2cn(-c3ccc(F)cc3)c3ccc(Cl)cc23)CC1, the Potency [5] was inconclusive: 11.9 µM [cytotoxic, single point], the Potency [1] was inconclusive: 13.3 µM [cytotoxic, partial curve] and the Potency [6] was inconclusive: 5.01 µM [activator, single point]. The Potency [7] was inconclusive: 13.3 µM [cytotoxic, single point].

In the case of O=c1[nH]nc(-c2ccc([N+](=O)[O-])o2)o1, the Potency [5] is reported as inconclusive: 30.6 µM [cytotoxic, partial curve], the Potency [1] is reported as inconclusive: 54.5 µM [cytotoxic, partial curve] and the Potency [8] is reported as inconclusive: 48.6 µM [cytotoxic, partial curve]. For the same compound, the Potency [7] was inconclusive: 30.6 µM [cytotoxic, partial curve], the Potency [9] was inconclusive: 38.6 µM [inhibitor, partial curve, poor fit] and the activation [10] was inconclusive: 12.3%.

With O=C1C=CC(=O)N1 the Potency [5] was active: 55.9 µM, the Potency [1] was active: 49.8 µM and the Potency [11] was active: 55.9 µM. The Potency [3] was inconclusive: 79 µM [cytotoxic, single point], the Potency [8] was active: 5.59 µM and the Potency [10] was inconclusive: 28 µM [full curve]. For the same compound, the Potency [12] was active: 28 µM and the Potency [13] was active: 55.9 µM.

For N=C1C=CC(=C(c2ccc(N)cc2)c2ccc(N)cc2)C=C1, the Potency [5] was active: 30.6 µM, the Potency [1] was active: 9.69 µM and the Potency [14] was inconclusive: 30.6 µM [inhibitor, partial curve]. The Potency [13] was active: 7.7 µM and the Potency [15] was inconclusive: 54.5 µM [falling, partial curve].

With NNc1nc(-c2ccc(N)cc2)cs1 the Potency [5] was inconclusive: 68.6 µM [cytotoxic, partial curve], the Potency [1] was inconclusive: 68.6 µM [cytotoxic, partial curve, poor fit] and the Potency [7] was inconclusive: 48.6 µM [cytotoxic, partial curve, poor fit]. For the same compound, the Potency [9] was inconclusive: 27.3 µM [inhibitor, partial curve, poor fit], the Potency [10] was “inactive” and the Potency [16] was inconclusive: 54.5 µM [cytotoxic, partial curve].

With O=C(O)c1cc(N=Nc2ccc([N+](=O)[O-])cc2)ccc1O the Potency [5] was inconclusive: 19 µM [cytotoxic, full curve], the Potency [1] was inconclusive: 60 µM [cytotoxic, partial curve] and the Potency [8] was active: 26.8 µM. For the same compound, the Potency [10] was inconclusive: 60 µM, the Potency [12] was inconclusive: 67.3 µM and the Potency [13] was inconclusive: 26.8 µM [cytotoxic, partial curve]. The Potency [17] was inconclusive: 67.3 µM [cytotoxic, partial curve, poor fit].

With CC(=O)Oc1ccc(C(c2ccc(OC(C)=O)cc2)c2ccccn2)cc1 the Potency [5] was inconclusive: 6.08 µM [cytotoxic, partial curve], the Potency [11] was active: 54.2 nM and active: 944 nM and the Potency [8] was inconclusive: 38.3 µM [cytotoxic, partial curve]. For the same compound, the Potency [7] was inconclusive: 54.2 µM [cytotoxic, partial curve], the Potency [9] was inconclusive: 24.2 µM [inhibitor, full curve] and the Potency [12] was active: 2.16 µM and active: 3.76 µM. The Potency [16] was inconclusive: 108 nM [cytotoxic, full curve] and inconclusive: 944 nM [cytotoxic, full curve].

For Nc1ccc2cc3ccc(N)cc3nc2c1, the Potency [5] was inconclusive: 48.6 µM [rising, partial curve] and inconclusive: 23.7 µM [rising, partial curve], the Potency [1] was inconclusive: 61.1 µM [rising, partial curve] and inconclusive: 23.7 µM [rising, partial curve] and the Potency [3] was inconclusive: 30.6 µM [rising, partial curve, poor fit] and inconclusive: 26.6 µM [rising, partial curve, poor fit]. For the same compound, the Potency [16] was inconclusive: 24.3 µM [rising, partial curve] and inconclusive: 23.7 µM [rising, partial curve], the Potency [13] was inconclusive: 0.686 µM [cytotoxic, full curve, poor fit] and the Potency [17] was inconclusive: 2.37 µM [cytotoxic, full curve].

With Clc1nc(Cl)c(Cl)c(Cl)c1Cl the Potency [5] was “inactive”, the Potency [1] was inconclusive: 68.9 µM [cytotoxic, partial curve, poor fit] and inactive and the Potency [10] was inconclusive: 68.9 µM [rising, partial curve, poor fit]. The Potency [12] was “inactive” and the Potency [16] was inconclusive: 77 µM [cytotoxic, single point].

From PubChem BioAssay (Tox21)
